The values that follow come from patent publication US20110263827A1 (AbbVie / Abbott, published 2011).

A value given as a limit tells only on which side of the number the result lay.

Assay [1] has as its target T1, EGFR de2-7 on U87MG-de2-7 cells (human, UniProt P00533).
T1 construct: whole, on cells; also called U287IΔ2-7
The assay can be described thus: FACS on U87MG de2-7 cells, relative to parent antibody.

The target of assay [2] is T2, EGFR (UniProt P00533 partial chain, limits assumed, biotinylated).
T2 construct: ELISA antigen; construct not described
The assay can be described thus: direct bind ELISA, N-term VD.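 Also: antibody or DVD-Ig preparations bound to immobilized target antigen on ELISA plates, 1 h at room temperature, TMB detection read as absorbance at 450 nm.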 In general terms: An ELISA detects its analyte on a solid surface through an enzyme-linked reagent.

Assay [3] deals with EGFR on cells (human cancer cell lines; EGFR-expressing target cells) (human, UniProt P00533). The assay can be described thus: cell-based or functional assay.
Assay [4] concerns the target T3, CD3 on Jurkat cells (UniProt P07766).
T3 construct: whole, on cells; CD3 is a complex
The assay can be described thus: FACS on Jurkat cells.

The target in assay [5] is T2, EGFR. The assay can be described thus: direct bind ELISA, C-term VD.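 Also: ELISA with antibody or DVD-Ig preparations applied to target antigen-coated plates for 1 h at room temperature, TMB colour development, absorbance read at 450 nm.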

B1: DVD331 (bispecific antibody)
VH: QVQLQESGPGLVKPSQTLSLTCTVSGYSISSDFAWNWIRQPPGKGLEWMGYISYSGNTRYQPSLKSRITISRDTSKNQFFLKLNSVTAADTATYYCVTAGRGFPYWGQGTLVTVSSASTKGPQVQLQQSGAELARPGASVKMS[about 80 residues cut from this listing]WGQGTTLTVSS
VL: not shown
notes: DVD-Ig; HC S, LC S; variable parts only
With B1, in assay [1], the “FACS % of parent” value was 115%. In addition, a half-maximal effect in assay [2] (EC50) was put at 3.68 nM. Also, the “rCTL activity IC50 (pM), impedance based” value in assay [3] is above 200000 pM.

B2: DVD833 (bispecific antibody)
VH: QVQLQESGPGLVKPSQTLSLTCTVSGYSISSDFAWNWIRQPPGKGLEWMGYISYSGNTRYQPSLKSRITISRDTSKNQFFLKLNSVTAADTATYYCVTAGRGFPYWGQGTLVTVSSASTKGPQVQLQQSGAELARPGASVKMS[about 80 residues cut from this listing]WGQGTTLTVSS
VL: not shown
notes: DVD-Ig; HC S, LC L; variable parts only
For B2, the “FACS % of parent” value in assay [1] was found to be 110%. Also, in assay [2], the EC50 – broadly, the concentration at which the effect is half-maximal – amounted to 3.03 nM. The “rCTL activity IC50 (pM), impedance based” value in assay [3] was 12 pM.

B3: DVD332 (bispecific antibody)
VH: QVQLQQSGAELARPGASVKMS[about 80 residues cut from this listing]WGQGTTLTVSSASTKGPQVQLQESGPGLVKPSQTLSLTCTVSGYSISSDFAWNWIRQPPGKGLEWMGYISYSGNTRYQPSLKSRITISRDTSKNQFFLKLNSVTAADTATYYCVTAGRGFPYWGQGTLVTVSS
VL: not shown
notes: as for B1
Regarding B3, in assay [1], the “FACS % of parent” value stood at 40%. Further, the EC50 in assay [4] is 0.775 nM; in assay [5], 62.1 nM. Besides, the “rCTL activity IC50 (pM), impedance based” value in assay [3] is 0.03 pM.

B4: DVD834 (bispecific antibody)
VH: QVQLQQSGAELARPGASVKMS[about 80 residues cut from this listing]WGQGTTLTVSSASTKGPQVQLQESGPGLVKPSQTLSLTCTVSGYSISSDFAWNWIRQPPGKGLEWMGYISYSGNTRYQPSLKSRITISRDTSKNQFFLKLNSVTAADTATYYCVTAGRGFPYWGQGTLVTVSS
VL: not shown
notes: as for B2
As to B4, the “FACS % of parent” value in assay [1] was 65%. Moreover, the EC50 in assay [4] was 0.7 nM; in assay [5], 26.7 nM. In addition, the “rCTL activity IC50 (pM), impedance based” value in assay [3] came to 0.08 pM.

B5: DVD804 (bispecific antibody)
VH: QVQLQQSGAELARPGASVKMS[about 80 residues cut from this listing]WGQGTTLTVSSASTKGPSVFPLAPQVQLQESGPGLVKPSQTLSLTCTVSGYSISSDFAWNWIRQPPGKGLEWMGYISYSGNTRYQPSLKSRITISRDTSKNQFFLKLNSVTAADTATYYCVTAGRGFPYWGQGTLVTVSS
VL: not shown
notes: DVD-Ig; HC L, LC S; variable parts only
Consider B5, for which, in assay [1], the “FACS % of parent” value was 70%. Further, the EC50 in assay [4] stood at 0.65 nM; in assay [5], 158 nM. The “rCTL activity IC50 (pM), impedance based” value in assay [3] amounted to 0.09 pM.

B6: DVD774 (bispecific antibody)
VH: QVQLQQSGAELARPGASVKMS[about 80 residues cut from this listing]WGQGTTLTVSSASTKGPSVFPLAPQVQLQESGPGLVKPSQTLSLTCTVSGYSISSDFAWNWIRQPPGKGLEWMGYISYSGNTRYQPSLKSRITISRDTSKNQFFLKLNSVTAADTATYYCVTAGRGFPYWGQGTLVTVSS
VL: not shown
notes: DVD-Ig; HC L, LC L; variable parts only
In the case of B6, in assay [1], the “FACS % of parent” value was determined as 70%. The values for the 50% effective concentration (EC50) in assay [4] and in assay [5] were 0.89 nM and 19.3 nM, respectively.

B7: DVD773 (bispecific antibody)
VH: QVQLQESGPGLVKPSQTLSLTCTVSGYSISSDFAWNWIRQPPGKGLEWMGYISYSGNTRYQPSLKSRITISRDTSKNQFFLKLNSVTAADTATYYCVTAGRGFPYWGQGTLVTVSSASTKGPSVFPLAPQVQLQQSGAELARPGASVKMS[about 80 residues cut from this listing]WGQGTTLTVSS
VL: not shown
notes: as for B6
B7: in assay [1], the “FACS % of parent” value stood at 105%. In addition, it took 4.96 nM to reach a half-maximal effect in assay [2] (EC50). The “rCTL activity IC50 (pM), impedance based” value in assay [3] is 16 pM.

B8: DVD803 (bispecific antibody)
VH: QVQLQESGPGLVKPSQTLSLTCTVSGYSISSDFAWNWIRQPPGKGLEWMGYISYSGNTRYQPSLKSRITISRDTSKNQFFLKLNSVTAADTATYYCVTAGRGFPYWGQGTLVTVSSASTKGPSVFPLAPQVQLQQSGAELARPGASVKMS[about 80 residues cut from this listing]WGQGTTLTVSS
VL: not shown
notes: as for B5
Regarding B8, the “FACS % of parent” value in assay [1] stood at 110%. The molecule also yielded a concentration giving a half-maximal response (EC50) in assay [2] of 0.23 nM. Moreover, the “rCTL activity IC50 (pM), impedance based” value in assay [3] was 42 pM.
